#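 Tested at 5 concentrations; 48 h exposure; 96-well plates; endpoints linearly interpolated, else capped at highest concentration. GI50 marks 50% less growth.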 Certain results were filed several times, with different values. The other results are left out here. The source may hold further records. For some of these results: A record mostly stands for its own series of concentrations, which the source does not state; a value can be the end of its range. Records carry a tag for their origin. Letters count within one entry. For some of these results: The values listed for one entry are repeated measurements (runs, samples, wells, individuals or studies).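 TGI is the concentration that stops growth completely.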
# How the values were obtained:
# Assay in all cases: inhibition of tumour cell growth, NCI panel, 48 h
# [1] = tested on: 786-0 renal
# [2] = tested on: A549 NSCLC
# [3] = tested on: ACHN renal
# [4] = tested on: BT-549 breast
# [5] = tested on: CAKI-1 renal
# [6] = tested on: CCRF-CEM leukemia
# [7] = tested on: COLO 205 colon
# [8] = tested on: DU-145 prostate
# [9] = tested on: EKVX NSCLC
# [10] = tested on: HCC-2998 colon
# [11] = tested on: HCT-116 colon
# [12] = tested on: HCT-15 colon
# [13] = tested on: HOP-62 NSCLC
# [14] = tested on: HOP-92 NSCLC
# [15] = tested on: HS 578T breast
# [16] = tested on: HT29 colon
# [17] = tested on: IGROV1 ovarian
# [18] = tested on: K-562 leukemia
# [19] = tested on: KM12 colon
# [20] = tested on: LOX IMVI melanoma
# [21] = tested on: M14 melanoma
# [22] = tested on: MALME-3M melanoma
# [23] = tested on: MCF7 breast
# [24] = tested on: MDA-MB-231 breast
# [25] = tested on: MDA-MB-435
# [26] = tested on: MDA-N
# [27] = tested on: MOLT-4 leukemia
smiles,measurement,setting,value
Nc1ncnc2c(C3OC(CO)C(O)C3O)nsc12 (centres undefined),GI50,[1],"23.7 nM [sample A, 1 test] and < 12 nM [sample A, mean of 2 tests] and 8.4 µM [sample B, mean of 2 tests]"
same,GI50,[2],"43.5 nM [sample A, 1 test] and < 19.2 nM [sample A, mean of 2 tests] and 24.1 µM [sample B, mean of 2 tests]"
same,TGI,[2],"440 nM [sample A, 1 test] and 3.38 µM [sample A, mean of 2 tests] and > 100 µM [sample B, mean of 2 tests]"
same,GI50,[3],"19.6 nM [sample A, 1 test] and 7.52 µM [sample B, mean of 2 tests]"
same,TGI,[3],"98.2 nM [sample A, 1 test] and > 100 µM [sample B, mean of 2 tests]"
same,GI50,[4],"< 10.5 nM [sample A, mean of 2 tests] and 8.9 µM [sample B, 1 test]"
same,TGI,[4],"1.08 µM [sample A, mean of 2 tests] and > 100 µM [sample B, 1 test]"
same,GI50,[5],"9.9 nM [sample A, 1 test] and 4.02 µM [sample B, mean of 2 tests]"
same,TGI,[5],"181 nM, 26.1 nM [sample A, 1 test] and 34.7 µM [sample B, mean of 2 tests]"
same,GI50,[6],"21.6 nM [sample A, 1 test] and 26.5 µM [sample B, 1 test]"
same,GI50,[7],"35.1 nM [sample A, 1 test] and 9.54 µM [sample B, mean of 2 tests]"
same,TGI,[7],"177 nM [sample A, 1 test] and > 55.2 µM [sample B, mean of 2 tests]"
same,GI50,[8],"23.7 nM, 14.4 nM [sample A, 1 test] and 11.5 µM [sample B, mean of 2 tests]"
same,TGI,[8],"265 nM, 2.32 µM [sample A, 1 test] and > 100 µM [sample B, mean of 2 tests]"
same,GI50,[9],"101 nM [sample A, 1 test] and 44.3 nM [sample A, mean of 2 tests] and 29 µM [sample B, mean of 2 tests]"
same,TGI,[9],"598 nM [sample A, 1 test] and 1.6 µM [sample A, mean of 2 tests] and > 87.8 µM [sample B, mean of 2 tests]"
same,GI50,[10],"25.3 nM [sample A, 1 test] and 15.6 µM [sample B, mean of 2 tests]"
same,TGI,[10],"157 nM [sample A, mean of 2 tests] and > 91.7 µM [sample B, mean of 2 tests]"
same,GI50,[11],"27.3 nM [sample A, 1 test] and 10.1 nM [sample A, mean of 2 tests] and 7.25 µM [sample B, mean of 2 tests]"
same,TGI,[11],"405 nM [sample A, 1 test] and 135 nM [sample A, mean of 2 tests] and > 100 µM [sample B, mean of 2 tests]"
same,GI50,[12],"13.7 nM [sample A, 1 test] and 4.9 µM [sample B, mean of 2 tests]"
same,TGI,[12],"933 nM [sample A, mean of 2 tests] and > 86.9 µM [sample B, mean of 2 tests]"
same,GI50,[13],"36.5 nM [sample A, 1 test] and < 20.2 nM [sample A, mean of 2 tests] and 18.9 µM [sample B, mean of 2 tests]"
same,TGI,[13],"645 nM [sample A, 1 test] and > 33 µM [sample A, mean of 2 tests] and > 100 µM [sample B, mean of 2 tests]"
same,GI50,[14],"49.3 nM [sample A, 1 test] and < 12 nM [sample A, mean of 2 tests] and 8.12 µM [sample B, mean of 2 tests]"
same,TGI,[14],"834 nM [sample A, mean of 2 tests] and 75.2 µM [sample B, mean of 2 tests]"
same,GI50,[15],"48.7 nM [sample A, 1 test] and 32.2 nM [sample A, mean of 2 tests] and 37.9 µM [sample B, mean of 2 tests]"
same,TGI,[15],"623 nM [sample A, 1 test] and 628 nM [sample A, mean of 2 tests] and > 100 µM [sample B, mean of 2 tests]"
same,GI50,[16],"36.1 nM [sample A, 1 test] and 10.9 µM [sample B, mean of 2 tests]"
same,GI50,[17],"19.5 nM [sample A, 1 test] and < 12.1 nM [sample A, mean of 2 tests] and 7.92 µM [sample B, mean of 2 tests]"
same,TGI,[17],"114 nM [sample A, 1 test] and 2.28 µM [sample A, mean of 2 tests] and > 94.4 µM [sample B, mean of 2 tests]"
same,GI50,[18],"4.46 nM [sample A, 1 test] and 3.82 µM [sample B, mean of 2 tests]"
same,TGI,[18],"20.5 nM [sample A, 1 test] and 1.09 µM [sample A, mean of 2 tests] and > 26.3 µM [sample B, mean of 2 tests]"
same,GI50,[19],"34.9 nM [sample A, 1 test] and < 16.6 nM [sample A, mean of 2 tests] and 16.6 µM [sample B, mean of 2 tests]"
same,TGI,[19],"691 nM [sample A, 1 test] and > 100 µM [sample B, mean of 2 tests]"
same,GI50,[20],"4.09 nM [sample A, 1 test] and 3.44 µM [sample B, mean of 2 tests]"
same,TGI,[20],"54.3 nM, 400 nM [sample A, 1 test] and 23 µM [sample B, mean of 2 tests]"
same,GI50,[21],"10.4 nM [sample A, 1 test] and 3.38 µM [sample B, mean of 2 tests]"
same,GI50,[22],"124 nM [sample A, 1 test] and 33.8 nM [sample A, mean of 2 tests] and 39.3 µM [sample B, mean of 2 tests]"
same,TGI,[22],"481 nM [sample A, mean of 2 tests] and > 100 µM [sample B, mean of 2 tests]"
same,GI50,[23],"38.9 nM [sample A, 1 test] and < 12.9 nM [sample A, mean of 2 tests] and 14.2 µM [sample B, mean of 2 tests]"
same,GI50,[24],"19.4 nM [sample A, 1 test] and < 11 nM [sample A, mean of 2 tests] and 7.17 µM [sample B, mean of 2 tests]"
same,TGI,[24],"210 nM [sample A, 1 test] and > 36.3 µM [sample A, mean of 2 tests] and 78.5 µM [sample B, mean of 2 tests]"
same,GI50,[25],"27.9 nM [sample A, 1 test] and < 11 nM [sample A, mean of 2 tests] and 8.71 µM [sample B, mean of 2 tests]"
same,TGI,[25],"502 nM [sample A, 1 test] and 38.1 nM [sample A, mean of 2 tests] and > 83.1 µM [sample B, mean of 2 tests]"
same,GI50,[26],"< 16.3 nM [sample A, mean of 2 tests] and 9.92 µM [sample B, 1 test]"
same,TGI,[26],"182 nM [sample A, mean of 2 tests] and > 100 µM [sample B, 1 test]"
same,GI50,[27],"25.8 nM [sample A, 1 test] and < 17.3 nM [sample A, mean of 2 tests] and 14.4 µM [sample B, mean of 2 tests]"
same,TGI,[27],"395 nM [sample A, mean of 2 tests] and > 100 µM [sample B, mean of 2 tests]"

# From PubChem BioAssay (NCI)
